# Measured values reported in PubChem BioAssay AID686978 (National Center for Advancing Translational Sciences (NCATS), 2013).
# The campaign covered roughly 420,000 compounds. About 64,000 (15%) were called active. This list was built around the results that the source calls inconclusive (neither active nor inactive); the mix of calls is not that of the screen. Calls come from the whole dose curve; as a rule, active = well fitted inhibition curve with a large enough effect; inconclusive = small, poorly fitted or top-dose-only effect; inactive = flat fitted curve, though single readings scatter. No potency is given beside an inconclusive call; the fits are too rough.
# Assay: qHTS for Inhibitors of human tyrosyl-DNA phosphodiesterase 1 (TDP1): qHTS in cells in absence of CPT; note: nearly all actives have a fitted effect of over 55% in size
# Details: DT40 Tdp1-/- hTDP1 cells, no CPT, ATP luminescence, 48 h; activity change, negative = growth inhibition: at 46.2 µM (top of the series) unless noted
# In short: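 Luminescent ATP content (CellTiter-Glo) served as the growth readout. Knockout chicken DT40 cells expressing human TDP1 were exposed to compounds without camptothecin for a minimum 48 hr at 37 °C.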
# % is set by controls: 0 for no effect and ±100 for the full control effect; potency is the fitted concentration of half-maximal effect; tags give direction and shape of the fitted curve.
Compound,Potency,"activity change, negative = growth inhibition"
COCCn1c(-c2ccc(Cl)cc2Cl)nc2c(c(=O)c3ccccc3n2C)c1=O,"inconclusive [inhibitor, single point]",–
CCC(C)(C)C(=O)Nc1ncc(S(=O)(=O)c2ccc([N+](=O)[O-])cc2)s1,"inconclusive [inhibitor, single point]",–
COc1cc(OC)cc(-c2nnc(N(C)C(=O)c3ccncc3)s2)c1,"inconclusive [inhibitor, partial curve]",–
COc1ccc(N(Cc2cc3cc(OC)ccc3[nH]c2=O)S(=O)(=O)c2ccc(NC(C)=O)cc2)cc1,active: 8.2 µM,–
CCN(CC)c1ccc(NC(=O)Nc2cccc3ccccc23)cc1,"inconclusive [inhibitor, single point]",–
COc1c(O)cc2c(-c3ccccc3)cc(=O)oc2c1OC,inactive,–
CCc1ccc(CN(C)C(=O)c2cc(COc3cc(C)c(Cl)c(C)c3)on2)nc1,"inconclusive [inhibitor, single point]",–
Cc1sc(NC(=O)COc2ccccc2)c(C#N)c1C,"inconclusive [inhibitor, single point]",–
Cc1ccc(C)c(N2N=C(C(=O)Nc3ccccc3N3CCOCC3)CCC2=O)c1,"inconclusive [inhibitor, single point]",–
CCNC(=S)Nc1ccc(NC(=O)c2ccccc2O)cc1,"inconclusive [inhibitor, partial curve]",–
CCOC(=O)C1CCN(C2=C(NS(=O)(=O)c3ccc(Br)cc3)C(=O)c3ccccc3C2=O)CC1,"inconclusive [inhibitor, partial curve, poor fit]",–
CC(C)(C)C(=O)Nc1c(Br)c(C2CC2)nn1-c1ccccc1,inactive,–
Cc1cc(-c2ccc([N+](=O)[O-])cc2)cc(C)n1,inactive,–
CC(=O)NC(Cc1ccc(O)cc1)C(=O)NCC(N)C(=O)c1ccccc1 (stereo unspecified),"inconclusive [inhibitor, single point]",–
N#CC1=C(N)SC(N)=C(C#N)C1c1ccnc2ccccc12,"inconclusive [inhibitor, single point]",–
CNc1ccc(C=C2C=CC=C2)cc1,"inconclusive [inhibitor, single point]",–
O=C(NC1CCN(C(=S)NCc2ccco2)CC1)c1ccc(F)cc1,inactive,–
CCn1c(SCC(=O)c2[nH]c(C)c(C(C)=O)c2C)nnc1-c1ccncc1,"inconclusive [inhibitor, single point]",–
Cn1c(SCC(N)=O)nc2c([nH]c3ccccc32)c1=O,inactive,–
Cc1nc2ccccc2n1CC(=O)NC1CCCC1,inactive,–
COc1ccc(C)cc1NC(=O)CNC(=O)Cn1ccc2ccccc2c1=O,"inconclusive [inhibitor, partial curve, poor fit]",–
O=C(O)c1ccc(Nc2nc(-c3ccccc3)c3cc(Br)ccc3n2)cc1,inactive,–
CN1C(=O)C(CC(=O)NCC2CCCCC2)SC1=Nc1ccccc1 (stereo unspecified),"inconclusive [inhibitor, partial curve]",–

Compound,Potency,"activity change, negative = growth inhibition"
COc1ccc(C2CC(c3ccc(OC)cc3)n3nc(NC(=O)c4cccs4)nc3N2)cc1 (stereo unspecified),"inconclusive [inhibitor, single point]",–
O=C(NCCCSc1ccccc1)c1cc(Br)ccc1O,"inconclusive [inhibitor, single point]",–
CCC1CCCCN1C(=O)COC(=O)c1cc(Br)ccc1Cl (stereo unspecified),–,inconclusive: -37.2% [inhibitor]
C=CCOc1ccc(/C=C2/C(=O)ON=C2C)cc1OCC,"inconclusive [inhibitor, single point]",–
O=C(CSc1nc(-c2cccs2)cc(C(F)(F)F)n1)NCc1ccccc1,active: 23.1 µM,–
CCOC(=O)C1=C(N)Oc2ccc3ccccc3c2C1c1cccc(O)c1 (stereo unspecified),"inconclusive [inhibitor, full curve, poor fit]",–
COc1ccc(CNC(=O)COc2ccc(C(=O)c3ccc(F)cc3)cc2)cc1,active: 4.61 µM,–
O=C(c1n[nH]c(=O)c2ccccc12)N1CCN(c2ccccc2Cl)CC1,"inconclusive [inhibitor, partial curve]",–
O=C(NCCN1C(=O)S/C(=C\c2ccc(OC(F)F)cc2)C1=O)C1=COCCO1,active: 7.31 µM,–
Cc1cc(=O)n(C)c(=O)n1CCCCCN1CCCC1,inactive,–
CC(C)c1onc(C(=O)N2CCCCC2)c1[N+](=O)[O-],"inconclusive [inhibitor, single point]",–
CCN(CC)C(=O)[C@H]1C[C@H](CC(=O)NCCCN(C)C)C(=O)N2CCc3c([nH]c4cc(CCC(=O)N(C)C)ccc34)[C@]12C,inactive,–
O=C(CCSc1ccccc1)Nc1nnc(-c2cccs2)o1,inactive,–
O=C(Nc1ccc2nc(-c3cccs3)[nH]c2c1)c1ccco1,"inconclusive [inhibitor, single point]",–
COc1ccc(CC2SC(=Nc3ccc(F)cc3)NC2=O)cc1 (stereo unspecified),"inconclusive [inhibitor, single point]",–
COC(=O)c1c(C(=O)OC)n(CCCN)c2ccc(C)cc12,active: 13 µM,–
Cc1ccc(CNn2cnnc2SCc2ccc(F)cc2)cc1,"inconclusive [inhibitor, single point]",–
CCOc1ccc(N/C=C/C(=O)c2ccc(OC)c(OC)c2)cc1,"inconclusive [inhibitor, single point]",–
CC1(C(=O)NS(=O)(=O)c2ccccc2C(F)(F)F)CCN1C(=O)COc1ccc(Cl)cc1 (stereo unspecified),inactive,–
COc1ccc([N+](=O)[O-])cc1NC(=O)C(C)N1CCCC1 (stereo unspecified),inactive,–
O=c1cnc2cnc(Oc3cccc(Cl)c3)nc2n1C1CC1,inactive,–
O=C(Cc1cccs1)Nc1nc(-c2ccc(F)cc2F)cs1,"inconclusive [inhibitor, partial curve]",–
O=C(CCc1ccccc1)N(Cc1cccnc1)c1nc2c(F)cc(F)cc2s1,"inconclusive [inhibitor, single point]",–
